Assay results as given in article PMC10320511.
Results are given in words; binding and its absence hold for the method and conditions named. In cells and extracts the contact can be indirect. Some entries that bind do so weakly or less than the wild type. Sequences can lack the tags named with a protein. Blank lines part the entries; values can stand above or below the binder they belong to.

How the values were obtained:
[1] = target: T1, FRQ Δ775–800, V5H6-tagged (Neurospora crassa) (UniProt P19970); assay: co-IP; V5H6-tagged FRQ (wild type or mutant) pulled down with V5 agarose from Neurospora lysate (cultures in the light, 25 °C); 50 mM Hepes pH 7.4, 137 mM NaCl, 10% glycerol, 0.4% NP-40; 4 °C, 2 h; Western blot with FRQ, FRH, WC-1 and WC-2 antibodies
T1 sequence: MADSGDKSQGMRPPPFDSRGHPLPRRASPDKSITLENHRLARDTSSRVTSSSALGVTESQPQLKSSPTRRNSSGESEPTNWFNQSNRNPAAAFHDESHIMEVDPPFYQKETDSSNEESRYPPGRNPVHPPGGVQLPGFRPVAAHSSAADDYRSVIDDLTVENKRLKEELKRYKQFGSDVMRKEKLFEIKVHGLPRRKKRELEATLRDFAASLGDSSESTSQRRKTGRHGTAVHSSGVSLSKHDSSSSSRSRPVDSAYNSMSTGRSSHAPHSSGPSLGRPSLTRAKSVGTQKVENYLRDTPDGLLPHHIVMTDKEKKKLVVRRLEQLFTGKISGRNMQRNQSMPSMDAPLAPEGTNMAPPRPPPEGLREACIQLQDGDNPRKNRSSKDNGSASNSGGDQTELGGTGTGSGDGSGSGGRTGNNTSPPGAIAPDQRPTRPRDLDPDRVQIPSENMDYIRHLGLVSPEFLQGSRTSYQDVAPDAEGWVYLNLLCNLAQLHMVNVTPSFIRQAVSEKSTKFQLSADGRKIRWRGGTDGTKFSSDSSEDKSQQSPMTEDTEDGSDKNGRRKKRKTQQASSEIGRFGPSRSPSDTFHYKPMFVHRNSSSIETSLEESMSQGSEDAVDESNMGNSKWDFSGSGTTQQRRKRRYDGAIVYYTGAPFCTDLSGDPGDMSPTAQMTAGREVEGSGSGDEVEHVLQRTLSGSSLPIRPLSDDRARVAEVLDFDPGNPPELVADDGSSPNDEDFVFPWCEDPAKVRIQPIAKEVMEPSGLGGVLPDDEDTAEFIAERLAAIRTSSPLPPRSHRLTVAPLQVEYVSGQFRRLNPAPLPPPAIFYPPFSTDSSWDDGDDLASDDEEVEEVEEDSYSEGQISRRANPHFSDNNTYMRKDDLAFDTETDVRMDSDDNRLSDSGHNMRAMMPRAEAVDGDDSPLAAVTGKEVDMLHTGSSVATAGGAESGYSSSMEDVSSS

[2] = target: T2, FRQ E835D, V5H6-tagged (Neurospora crassa) (UniProt P19970); assay: as above
T2 sequence: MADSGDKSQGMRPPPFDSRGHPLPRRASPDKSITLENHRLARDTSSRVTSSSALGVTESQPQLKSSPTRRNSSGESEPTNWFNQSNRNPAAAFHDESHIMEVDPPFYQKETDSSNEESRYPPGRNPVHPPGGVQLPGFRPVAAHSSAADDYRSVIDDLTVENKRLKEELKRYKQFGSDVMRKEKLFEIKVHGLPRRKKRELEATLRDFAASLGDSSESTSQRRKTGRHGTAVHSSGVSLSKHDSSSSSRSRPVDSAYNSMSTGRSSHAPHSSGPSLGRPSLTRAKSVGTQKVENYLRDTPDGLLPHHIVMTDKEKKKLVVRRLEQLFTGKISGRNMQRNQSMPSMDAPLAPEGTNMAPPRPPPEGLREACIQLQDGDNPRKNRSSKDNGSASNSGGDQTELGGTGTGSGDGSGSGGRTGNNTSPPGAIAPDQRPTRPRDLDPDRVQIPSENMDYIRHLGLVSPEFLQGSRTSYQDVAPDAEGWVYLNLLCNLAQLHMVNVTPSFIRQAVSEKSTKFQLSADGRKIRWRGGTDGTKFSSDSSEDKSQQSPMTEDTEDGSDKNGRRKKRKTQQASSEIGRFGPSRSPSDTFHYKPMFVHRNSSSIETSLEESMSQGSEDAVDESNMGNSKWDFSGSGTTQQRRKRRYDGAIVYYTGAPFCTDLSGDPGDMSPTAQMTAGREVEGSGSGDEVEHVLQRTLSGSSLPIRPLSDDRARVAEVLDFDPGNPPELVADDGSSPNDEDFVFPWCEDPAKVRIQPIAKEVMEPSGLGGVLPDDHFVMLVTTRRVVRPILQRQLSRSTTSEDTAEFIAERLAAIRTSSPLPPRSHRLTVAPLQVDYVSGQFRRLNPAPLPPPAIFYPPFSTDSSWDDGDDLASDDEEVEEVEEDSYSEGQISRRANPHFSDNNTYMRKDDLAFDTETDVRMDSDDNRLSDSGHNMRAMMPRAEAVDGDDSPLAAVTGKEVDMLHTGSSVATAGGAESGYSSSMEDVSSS

binding [1]: no binding | binding [2]: binds
B1: White Collar-2 (WC-2) (protein, UniProt P78714 1-530)
chain: MSHGQPPPGSSMYGFGAMGMGSGMGSGMGSGMGTGMGTGMGTGMSASQMTSDPQDMMSLLDTSVFPGFDGMSMSLDVGDSMSNPFTPVSVPPPLPAGNAGPSHVGVCGGHGAPDQLFSPDDLIATSMSSAGPMIATPTTTTSGPSGGPSSGGGSTLTEFTKRRNWPAKVVEELQDWEHILDANGRIKHVSPSVEPLTGYKPPEIIDLFLRDLIHPDDVGVFTAELNEAIATGSQLRLFYRFRKKDGNWTIFETVGHAHIAAAKFAPNPQNQSPFCQAVFMMARPYPTKNAGLLDSFLEHKIENERLKRRIAELRREEQEEQEESHRTWRMSQEGRSDVTPSDDTATQMGMTPFYIPMNAQADVMMPPPSQPASSLNIALTRENLEGIAGSRPDSIREKMLRYEGNHADTIEMLTGLKYQEGERSHGITTGNASPTLIKGDAGIAIPLDRDPRTGEKKKKIKVAEEYVCTDCGTLDSPEWRKGPSGPKTLCNACGLRWAKKEKKKNANNNNNGGGIGGHNDIHTPMGDHMG

binding [1]: no binding | binding [2]: binds
B2: FRQ-interacting RNA helicase (FRH) (protein, UniProt Q1K502 1-1106)
chain: MDDLFEVFEEQPRAQKKRKASPDVEMADGAAAAAPVANAAAAVTHPQAQAAPAPQKDNIDNNDNNNNNTTTSAVQPTIPNGDAAAAADDVQSPQSPHGLGDNKRRKKTDEAEPIMTDAFQTAESREVTGAQGFAPTEGESIVLSHNIQHQVALPPDLDYEYIPLSEHKPPAEPARTYSFKLDPFQALSVASIEREESVLVSAHTSAGKTVVAEYAIAQCLKKNQRVIYTSPIKALSNQKYRDFQAEFGDVGLMTGDVTINPTASCLVMTTEILRSMLYRGSEIMREVAWVVFDEIHYMRDKIRGVVWEETIILLPDKVRYVFLSATIPNAFQFAEWIAKIHRQACHVVYTDFRPTPLQNYFFPAGGKGILLIVDEKGNFKENNFNQAMAMIEEKKGTDSNDWSAKQKGKGKNKKTNKGGEAADEKADIAKIIKMILKKNFQPVIVFNFSKRECEQMALASSSMKFNAPDEENMVNKVFENALASLSEDDKNLPQISNILPLLRKGIGVHHSGLLPILKETIEILFQEGLIKVLFATETFSIGLNMPARTVVFTQVTKWDGQQRRPLTSSEYIQMAGRAGRRGLDDRGIVIMMVDDKLEPETARAIVVGNQDKLNSAFHLGYNMVLNLLRIEAISPEYMLERCFFQFQNAASVPQLERELISLQQERDAIIIPDESIVKDYYGVRQQLEEYNKDMVFVIQHPQNCLGFFQEGRLIHIKSPSGVDYGWGVLIKHIQRQTPKNGQPPYPEQESYVLDVLLKVSGDFNPKTRGEGPMPEGIMPAGKDSKNARWEVVPCLLNCLRALGQLRVFLPKRLESADEKDGVGKAVDEISRRFPDGIPILDPMENMGINDDSFKKLLRKIEVLESRLVANPLHNSPLLVELWNQYSLKMQLGEQIKEKKKAIARAHSVAQLDELKSRKRVLRRLGFINDAEVVQMKARVACEISSTEGHELLLAELLFNRFFNELSPEICACILSCFIFDEKIETQALKEELAKPFREIQAQARIIAKVSAESKLDVNEDEYVQSLKWQLMETVLAWAQGRPFSEICKMTNVYEGSLIRLFRRLEELLRQMAEAARVMGSEELKDKFELSLSKIRRDIVSFNSLYL
